According to the supplement of paper PMC4604168 (melanoma cell lines):
This is one part of the list. Single values are uncertain, as repeats are few or missing.

Tests used:
Test in all cases: cell count relative to DMSO control; melanoma cells; higher = more viable cells
Details in all cases: library dose: low library concentration; 72 h
[1] = test system: MZ2-MEL
[2] = test system: MeWo
[3] = test system: RPMI7951
[4] = test system: RVH-421
[5] = test system: SkMel28
[6] = test system: SkMel2
[7] = test system: SkMel30
[8] = test system: SkMel5
[9] = test system: UACC257
[10] = test system: UACC62
[11] = test system: WM115
[12] = test system: WM1716
[13] = test system: WM1745
[14] = test system: WM3526
[15] = test system: WM3619
[16] = test system: WM451Lu
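Note: cell number obtained by counting DAPI-stained nuclei in high-throughput microscope images with image analysis software, screen run in 1,536-well plates.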

Compound	cell count [1] [%]	cell count [2] [%]	cell count [3] [%]	cell count [4] [%]	cell count [5] [%]	cell count [6] [%]	cell count [7] [%]	cell count [8] [%]	cell count [9] [%]	cell count [10] [%]	cell count [11] [%]	cell count [12] [%]	cell count [13] [%]	cell count [14] [%]	cell count [15] [%]	cell count [16] [%]
NC(=O)c1ccc(N(C(N)=O)c2c(F)cccc2F)nc1-c1ccc(F)cc1F + COC(=O)c1sccc1S(=O)(=O)Nc1ccc(Nc2ccccc2)cc1OC [GSK0660] (first compound 0.4 µM, partner dose 1 µM)	92.1	99.1	103	96.7	103	99.7	116	101	86.8	84	99.5	115	93.9	90.2	115	91.1
CCCCCCCCc1ccc(CCC(N)(CO)CO)cc1 [fingolimod] + CN(C)S(=O)(=O)c1ccc2c(c1)/C(=C/c1cc3c([nH]1)CCCC3)C(=O)N2 [SU6656] (first compound 2 µM, partner dose 0.4 µM)	100	78.6	82.2	94.2	89.7	87.7	101	97.6	103	86.6	71.8	76.6	51.9	74	34	87.9
CCCCCCCCc1ccc(CCC(N)(CO)CO)cc1 [fingolimod] + O=C(Nc1ccccc1)c1cc([N+](=O)[O-])ccc1Cl [GW9662] (first compound 2 µM, partner dose 2 µM)	94.3	91.3	107	83.3	64.2	99.6	110	103	121	66.5	98.3	72.1	69.3	68.8	80.8	102
CCCCCCCCc1ccc(CCC(N)(CO)CO)cc1 [fingolimod] + O=C(O)C(=O)Nc1sc2c(c1C(=O)O)CCNC2 [TCS401] (first compound 2 µM, partner dose 1.66667 µM)	103	99.3	93	99.2	95.5	100	88.3	79.9	75.7	73.5	90.6	72.9	81.1	79	89.5	104
NC(=O)c1ccc(N(C(N)=O)c2c(F)cccc2F)nc1-c1ccc(F)cc1F + Cc1cc([N+](=O)[O-])ccc1NS(=O)(=O)c1cc(Cl)ccc1Cl [FH535] (first compound 0.4 µM, partner dose 1 µM)	90	96.8	121	90.5	71.7	101	82.7	92.6	86.5	99.9	94.4	81.3	89.6	81.8	123	97.5
CCCCCCCCc1ccc(CCC(N)(CO)CO)cc1 [fingolimod] + OCCn1cc(-c2cnc3nnn(Cc4ccc5ncccc5c4)c3n2)cn1 [PF04217903] (first compound 2 µM, partner dose 1 µM)	86.5	97.5	94.8	113	94.8	94.1	93.7	79.7	80.4	85.8	97.7	79.3	70.2	101	90.2	124
CC(C)(C)c1cnc(CSc2cnc(NC(=O)C3CCNCC3)s2)o1 + C[C@@H]1CCN(C(=O)CC#N)C[C@@H]1N(C)c1ncnc2[nH]ccc12 [CP690550] (first compound 0.01 µM, partner dose 1 µM)	105	106	103	95.7	91.3	107	93.9	104	82.6	83.9	98	93.2	94.5	97.4	93	80.3
CCCCCCCCc1ccc(CCC(N)(CO)CO)cc1 [fingolimod] + CCCCCCCCCCCC1=C(O)C(=O)C=C(O)C1=O [Embelin] (first compound 2 µM, partner dose 1.2 µM)	96.5	98.3	85.4	115	76.4	93.5	94.2	90.7	76	96.2	85.7	92.1	80.4	82.1	89.7	109
CCCCCCCCc1ccc(CCC(N)(CO)CO)cc1 [fingolimod] + COc1ccc(-c2ccc3c(N4CCOCC4)nc(N4C[C@@H](C)O[C@@H](C)C4)nc3n2)cc1CO [KU0063794] (first compound 2 µM, partner dose 0.02 µM)	90	106	72.3	103	83	96.3	78.6	87.1	61.6	83	95.4	71.4	55.1	87.2	69.1	99.8
Cc1ccc(NC(=O)c2cccc(N(C)C)c2)cc1NC(=O)c1ccc(O)cc1 + O=C(O)c1ccc(-c2c[nH]c3ncc(-c4ccccc4)cc23)cc1C1CCCC1 [GSK650394] (first compound 2 µM, partner dose 0.16 µM)	74.4	90.5	101	98.5	88	96.4	91.1	104	59.9	77.4	111	93.8	96.5	94.2	86.7	93.4
